Measured values published in the supplement of paper PMC4967469.
A lower IC50 marks a more sensitive line; a limit (>, <) means that the fit lies beyond the doses tested. AUC, from the same fit, is the share of area under the viability curve across the 256-fold dose range: 1 means no effect, lower means more sensitive. For part of these data: Any top dose called inferred comes from the curve model; the source does not state it. For part of these data: Drugs with an entry number were screened twice under separate entries, and the two screens often disagree.

Columns and labels:
Experiment in all cases: Viability of human cancer cell lines after 72 h of drug (GDSC screen)
Thapsigargin = compound: C/C=C(/C)C(=O)O[C@H]1C(C)=C2[C@H]([C@@H]1OC(=O)CCCCCCC)[C@@](C)(OC(C)=O)C[C@H](OC(=O)CCC)[C@@]1(O)[C@H]2OC(=O)[C@@]1(C)O [Thapsigargin]; conditions: top dose 0.512 µM; top dose inferred
Protocol: (§1)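 Human cancer cell lines in 384-well plates, medium with 10% serum, drug for 72 h over a 256-fold dose range (nine 2-fold or five 4-fold steps up to the top dose). Adherent lines were fixed and stained with the nucleic acid dye Syto60, suspension lines read with resazurin; signal relative to control wells, capped at 0 and 100%. One two-parameter sigmoid per drug and line, fitted in a mixed model over all curves with the slope shared within a line.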

QL-X-138 = compound: C=CC(=O)Nc1cc(-n2c(=O)ccc3cnc4ccc(-c5cn[nH]c5)cc4c32)ccc1C [QL-X-138]; conditions: top dose 10.24 µM; top dose inferred
Protocol: as §1

GSK269962A = compound: CCn1c(-c2nonc2N)nc2cnc(Oc3cccc(NC(=O)c4ccc(OCCN5CCOCC5)cc4)c3)cc21 [GSK269962A]; conditions: top dose inferred
Protocol: as §1

MPS-1-IN-1 = compound: COc1cc(N2CCC(O)CC2)ccc1Nc1cc(Nc2ccccc2S(=O)(=O)C(C)C)c2cc[nH]c2n1 [MPS-1-IN-1]; conditions: top dose 20 µM; top dose inferred
Protocol: as §1

(5Z)-7-Oxozeaenol = compound: COc1cc(O)c2c(c1)/C=C/C[C@H](O)[C@H](O)C(=O)/C=C\C[C@H](C)OC2=O [(5Z)-7-Oxozeaenol]; conditions: top dose 10 µM; top dose inferred
Protocol: as §1

CP466722 = compound: COc1cc2ncnc(-n3nc(-c4ccccn4)nc3N)c2cc1OC [CP466722]; conditions: top dose 16 µM; top dose inferred
Protocol: as §1

Zibotentan = compound: COc1nc(C)cnc1NS(=O)(=O)c1cccnc1-c1ccc(-c2nnco2)cc1 [Zibotentan]; conditions: top dose 20 µM; top dose inferred
Protocol: as §1

ABT-888 = compound: C[C@]1(c2nc3c(C(N)=O)cccc3[nH]2)CCCN1 [ABT-888]; conditions: top dose 5 µM; top dose inferred
Protocol: as §1

CMK = compound: Cc1ccc(-c2c(C(=O)CCl)n(CCCO)c3ncnc(N)c23)cc1 [CMK]; conditions: top dose 4 µM; top dose inferred
Protocol: as §1

ABT-869 = compound: Cc1ccc(F)c(NC(=O)Nc2ccc(-c3cccc4[nH]nc(N)c34)cc2)c1 [ABT-869]; conditions: top dose 1.024 µM; top dose inferred
Protocol: as §1

CHIR-99021 = compound: Cc1cnc(-c2cnc(NCCNc3ccc(C#N)cn3)nc2-c2ccc(Cl)cc2Cl)[nH]1 [CHIR-99021]
Protocol: as §1

Cytarabine = compound: Nc1ccn([C@@H]2O[C@H](CO)[C@@H](O)[C@@H]2O)c(=O)n1 [Cytarabine]; conditions: top dose 2 µM
Protocol: as §1

KU-55933 = compound: O=c1cc(-c2cccc3c2Sc2ccccc2S3)oc(N2CCOCC2)c1 [KU-55933]; conditions: top dose 10 µM
Protocol: as §1

[1] = top dose 2.5 µM, screen: GDSC drug entry 127
[2] = top dose 5 µM, screen: GDSC drug entry 1192
[3] = top dose 2.56 µM, screen: GDSC drug entry 154
[4] = top dose 10 µM, screen: GDSC drug entry 1241, top dose inferred

Cell Line	AUC (Thapsigargin)	IC50 (Thapsigargin) [µM]	AUC (QL-X-138)	IC50 (QL-X-138) [µM]	AUC (GSK269962A; [1])	IC50 (GSK269962A; [1]) [µM]	AUC (GSK269962A; [2])	IC50 (GSK269962A; [2]) [µM]	AUC (MPS-1-IN-1)	IC50 (MPS-1-IN-1) [µM]	AUC ((5Z)-7-Oxozeaenol)	IC50 ((5Z)-7-Oxozeaenol) [µM]	AUC (CP466722)	IC50 (CP466722) [µM]	AUC (Zibotentan)	IC50 (Zibotentan) [µM]	AUC (ABT-888)	IC50 (ABT-888) [µM]	AUC (CMK)	IC50 (CMK) [µM]	AUC (ABT-869)	IC50 (ABT-869) [µM]	AUC (CHIR-99021; [3])	IC50 (CHIR-99021; [3]) [µM]	AUC (CHIR-99021; [4])	IC50 (CHIR-99021; [4]) [µM]	AUC (Cytarabine)	IC50 (Cytarabine) [µM]	AUC (KU-55933)	IC50 (KU-55933) [µM]
NCI-SNU-1 (stomach, suspension)	0.413	0.0184	0.7	2.39	0.886	> 2.5	0.961	> 5	0.783	8.72	0.772	3.98	0.751	5.44	0.984	> 20	0.986	> 5	0.977	> 4	0.978	> 1.02	0.988	> 2.56	0.969	> 10	0.963	> 2	0.962	> 10
NCI-SNU-5 (stomach, suspension)	0.643	0.0799	0.958	> 10.2	0.964	> 2.5	0.984	> 5	0.989	> 20	0.771	3.9	0.982	> 16	0.989	> 20	0.971	> 5	0.961	> 4	0.987	> 1.02	0.989	> 2.56	0.982	> 10	0.797	0.959	0.987	> 10
NH-12 (neuroblastoma, adherent)	0.48	0.028	0.71	2.73	0.982	> 2.5	0.909	> 5	0.806	11.7	0.451	0.451	0.751	5.83	0.972	> 20	0.981	> 5	0.959	> 4	0.978	> 1.02	0.919	> 2.56	0.901	> 10	0.77	0.85	0.95	> 10
NMC-G1 (glioma, adherent)	0.368	0.0127	0.569	1.04	0.94	> 2.5	0.87	> 5	0.865	> 20	0.554	0.905	0.666	3.24	0.975	> 20	0.946	> 5	0.899	> 4	0.98	> 1.02	0.961	> 2.56	0.761	4.33	0.837	1.8	0.98	> 10
